# Measurements from the supplement of paper PMC3334620.
# Over roughly 33,000 sequences, “E-score (-0.5 to 0.5)” has its median near -0.054; the highest 2% begin near 0.35. Some of the results follow.
# Target: T1, Stb5 (UniProt P38699)
# T1 sequence: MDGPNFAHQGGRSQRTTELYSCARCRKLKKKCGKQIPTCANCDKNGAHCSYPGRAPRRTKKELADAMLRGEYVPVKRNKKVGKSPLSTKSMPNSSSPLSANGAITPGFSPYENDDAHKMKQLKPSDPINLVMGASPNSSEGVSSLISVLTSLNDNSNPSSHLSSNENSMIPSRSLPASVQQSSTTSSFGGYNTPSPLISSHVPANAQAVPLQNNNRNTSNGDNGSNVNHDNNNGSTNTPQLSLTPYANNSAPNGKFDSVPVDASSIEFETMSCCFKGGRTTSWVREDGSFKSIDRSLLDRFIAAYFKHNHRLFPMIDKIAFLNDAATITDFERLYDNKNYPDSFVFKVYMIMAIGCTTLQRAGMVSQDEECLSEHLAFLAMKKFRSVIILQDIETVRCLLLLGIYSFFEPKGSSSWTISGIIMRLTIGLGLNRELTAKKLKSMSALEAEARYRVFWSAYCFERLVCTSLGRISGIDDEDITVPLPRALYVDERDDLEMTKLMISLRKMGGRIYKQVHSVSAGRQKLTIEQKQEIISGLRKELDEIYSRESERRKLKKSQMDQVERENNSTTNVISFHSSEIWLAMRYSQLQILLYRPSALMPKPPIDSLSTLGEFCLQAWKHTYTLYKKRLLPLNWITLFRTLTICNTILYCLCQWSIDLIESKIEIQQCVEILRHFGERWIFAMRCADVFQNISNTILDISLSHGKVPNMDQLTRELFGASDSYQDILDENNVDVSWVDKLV
# Assay: PBM E-score (8-mer binding enrichment) (E-score (-0.5 to 0.5)); higher = stronger / more preferred TF binding; most listed sequences are background and not binding sites
# Conditions: protein concentration: 200 nM; construct: GST-full length
# Outline: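 GST-tagged yeast TFs (full-length or DNA-binding domain) were made by PURExpress in vitro transcription/translation and applied at about 100-200 nM to universal all-10-mer Agilent arrays. The arrays were made double-stranded by primer extension, on fresh or once-stripped slides. Bound protein was detected with fluorescent anti-GST, and scans were normalised with masliner. Each ungapped eight-base word, pooled with its reverse complement, received an E-score (modified Wilcoxon-Mann-Whitney statistic) from the Universal PBM Analysis Suite.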
row,Sequence,PBM E-score
1,AGTCCGAA,0.299
2,AATAAGAG,0.212
3,CCCAAGGG,-0.177
4,GTGACGAA,-0.131
5,ACCGGGAC,0.217
6,TGCGTAAA,-0.0108
7,ATGTCCAA,-0.0119
8,TATGCTCA,-0.157
9,GCTGTGAA,-0.141
10,CCTTGCAA,-0.312
11,CCCAACCA,-0.0714
12,ACAGGTTA,0.0309
13,ACGGGAGA,-0.0373
14,ATTCAAAC,-0.0568
15,AGTAGTCG,-0.0258
16,CAGTGATG,-0.218
17,AAAAAATC,-0.0793
18,ACTTGGAC,0.0571
19,GGGGGGAC,-0.0771
20,CCGCTGAG,0.177
21,ACCTGCCG,-0.0814
22,ACCTTCTC,-0.198
23,ATTGCGCC,0.184
24,AGCGGCTA,0.214
25,AGACATAG,-0.0198

row,Sequence,PBM E-score
1,TCAATGAA,-0.157
2,AGGTTAGC,0.0304
3,AGAACACA,-0.307
4,CGAACATA,0.0267
5,CTATGTGA,-0.0254
6,GGATCCCA,-0.147
7,TAGACCAA,-0.239
8,GCACCTAC,0.127
9,CAGTCAAG,-0.338
10,CCAGCCAA,-0.126
11,AGCTCACT,-0.344
12,CGTTGCTA,0.123
13,AGTTCGTG,-0.121
14,AGCTATCG,-0.103
15,CTTAACGA,-0.0773
16,CGTGTTGA,0.0142
17,CCTCGTAG,-0.228
18,GTACTTGA,-0.172
19,CGCGGCAA,0.263
20,ATTTCATA,-0.096
21,ACTACATG,-0.233
22,GTCAGGCA,-0.00262
23,ATCTACGG,0.265
24,CGGATACG,0.0735
25,CAGTCGGC,0.244

row,Sequence,PBM E-score
1,ACAAAGAG,-0.148
2,CAGAGTCC,0.164
3,GAATCCTC,-0.239
4,CCCAGCTC,-0.176
5,CGTGGCAC,-0.0381
6,ACGTACAA,-0.133
7,CTTTAGGC,0.036
8,CCCTAGCC,-0.102
9,GCCCGGCA,0.249
10,CTCAACGA,0.00902
11,ATGACGCA,-0.159
12,ATGGGAGG,0.0364
13,TACAGCGA,-0.248
14,CGGGTGTA,0.37
15,GCTTTCCC,-0.00065
16,CTTGTACC,0.043
17,AAGGTTAC,-0.293
18,AAATGGCT,-0.197
19,ATTCAATG,-0.101
20,ACTACTAC,-0.00154
21,ATCGTCTC,-0.0221
22,AGCTCGTA,-0.28
23,TGCATGCA,-0.23
24,AGAAATGA,-0.166
25,TACCAGAA,-0.0189

row,Sequence,PBM E-score
1,ATGACCCC,0.278
2,CGTTCGAC,-0.0847
3,ACCGACTC,0.215
4,AAGTAGAG,-0.202
5,GGGCTGAC,0.0657
6,ACGGGTAC,-0.079
7,CTATTACC,0.313
8,CCAGTGGC,-0.176
9,TAAAATGA,-0.0173
10,AAGGTCGG,0.317
11,CCCACTAA,-0.0418
12,ACACATCT,-0.153
13,AGCTTCTA,-0.0951
14,AATAAGTG,-0.129
15,CGCGAACA,-0.109
16,CTTTCCGA,0.0686
17,ATGACCGC,0.381
18,ACTGATCA,-0.00756
19,AATTGCTC,-0.00678
20,ATAGATTA,-0.0553
21,GCCCGAAA,0.159
22,CCGCTTTA,0.337
23,GGGTGTTA,0.25
24,AGACGCTG,-0.0878
25,GCCGTCCA,0.223

row,Sequence,PBM E-score
1,CATCGCAG,-0.0956
2,CCCTAGCG,-0.0943
3,ACAATCAA,-0.148
4,GACGGAGC,0.311
5,AACGACAA,-0.00501
6,AAATGATG,-0.24
7,AGATTATC,-0.143
8,ATTACCGA,0.38
9,AGTCCACG,0.0828
10,CACATTCG,-0.0522
11,ATCGGTGA,0.366
12,CCGTTATC,0.186
13,AGCGAAGG,-0.0665
14,CTCCCTAA,-0.259
15,AATGCTCA,-0.362
16,GACGGTAC,0.312
17,CAGATCTA,-0.154
18,CACCATGA,0.077
19,ATCACATA,-0.0836
20,CGCCCCTC,0.0818
21,CACGGGTC,0.0592
22,GGATTCCA,-0.0341
23,GATGAGCC,-0.0885
24,GGCTTCCA,-0.0805
25,ATGATAAC,-0.113

row,Sequence,PBM E-score
1,AGGTATGA,0.00378
2,ATGCAACG,-0.0435
3,ACAACGTC,0.00369
4,ATCGCCCG,0.0987
5,ACCGGTCA,0.227
6,CCAGAACG,-0.0165
7,AGCAGGCT,-0.16
8,CTGACTTA,-0.06
9,ACTTCTCT,-0.252
10,AATTGCCC,0.0559
11,CTTACATC,-0.0854
12,TACCGTGA,0.239
13,GAGACGGA,0.307
14,CTTGAGTC,-0.164
15,ATAGAGCG,0.0868
16,ATGGTGCA,-0.0962
17,ACTGTCAA,-0.249
18,CACCGGTA,0.408
19,TATTCGAA,-0.238
20,CAGCTGTA,-0.131
21,ACGGCTCG,0.0784
22,GTCAACAC,-0.0628
23,CAGAAAAC,-0.185
24,CTAGTCCC,0.152
25,AATGTACT,-0.125

row,Sequence,PBM E-score
1,CAACAGAC,-0.0679
2,TGACGGCA,0.276
3,CACTGGTA,-0.18
4,CCATCGTC,-0.0812
5,ATCACTAG,-0.114
6,GGTACACC,0.0506
7,AATAGAAT,-0.187
8,GAGTCCAA,-0.182
9,GTACGCAC,-0.15
10,CCTGTACG,-0.0482
11,AGTGTCGG,0.341
12,CACGTCGG,0.341
13,CAATCGGA,0.311
14,GACGTATA,0.0282
15,ACGTCAGT,-0.218
16,CACGCCAA,-0.28
17,ATAAAAGC,-0.0068
18,GATGAGGC,-0.144
19,AGTGGTTC,-0.131
20,TTACCAAA,0.047
21,GGGAGATA,-0.00859
22,AGTATGAT,-0.231
